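Cells were grown in 96-well plates and exposed to each compound for 48 hours at five concentrations; endpoints were interpolated linearly between bracketing concentrations, or set to the highest concentration if not reached. GI50 marks 50% less growth.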 Active and inactive are the calls of the source. No stated cut-off is given here; in the data, active = GI50 up to about 1.1 µM and inactive = higher.
Test system: NCI-H322M
Assay: NCI anticancer screen, dose series, 48 h

SMILES | GI50
O=C1c2ccccc2C(=O)c2c(NCCCNCCO)ccc(NCCCNCCO)c21 | inactive: 6.67 µM
CC(=O)c1sc2c(c1OC(=O)c1ccc(Cl)cc1Cl)c(=O)n(-c1ccccc1)c(=S)n2-c1ccccc1 | active: 0.769 µM
COc1cc(C2C3=C(COC3=O)Oc3cc4c(cc32)OCO4)cc(OC)c1OC(C)=O (stereo unspecified) | active: 0.0262 µM
Cc1cc2c(=Cc3ccc(N(C)C)cc3)c3ccccc3n2[n+]1C | inactive: 1.5 µM
COc1ccc(NC2Oc3cc4c(cc3C(c3cc(OC)c(OC)c(OC)c3)C2C)OCO4)cc1 (stereo unspecified) | active: 0.343 µM
CCOC(=O)c1c(SCCN2CCCC2)n(-c2ccccc2)c(=S)n(-c2ccccc2)c1=O | inactive: 18.2 µM
Cc1sc2nc(-c3ccc(Cl)c([N+](=O)[O-])c3)c(/C=N/NC(=N)N)n2c1C | inactive: 1.54 µM
CN(C)CCNC(=O)c1cccc2c1nc(-c1ccccc1)c1ccccc12 | inactive: 4.92 µM
FC(F)(F)c1ccccc1C1SCc2nc3ccccc3n21 (stereo unspecified) | inactive: 97.7 µM
CC(O)c1nc(C#N)c(N)o1 (stereo unspecified) | inactive: > 100 µM
CCCC(=O)NC(C(=O)OCC)(N1CCOCC1)C(F)(F)F (stereo unspecified) | inactive: > 100 µM
COc1cc(NS(C)(=O)=O)ccc1Nc1c2ccccc2nc2c1[nH]c1ccc(NC3OC(CO)C(O)C(O)C3O)cc12 (stereo unspecified) | active: 0.424 µM
O=S(=O)(NCn1ccc2ccccc21)c1ccccc1 | inactive: > 100 µM
Cn1c2ccc([N+](=O)[O-])cc2c(=O)c2c(O)cc(O)cc21 | inactive: > 100 µM
CCOP(=O)(/C=C/n1cc(C)c(=O)[nH]c1=O)OCC | inactive: > 100 µM
NC(=O)c1c(-c2ccccc2)c(-c2ccccc2)cc2c(=O)c3ccccc3[nH]c12 | inactive: 30.9 µM
O=C1c2ccccc2C2(O)c3cc4ccccc4cc3OC12O (stereo unspecified) | inactive: > 100 µM
COc1ccc(Nc2nc3ccccc3nc2-c2cccs2)cc1OC | inactive: > 10 µM
C[C@]12[C@@H]3CC[C@H]1[C@@H](O)C(=O)N2CC3 | inactive: > 100 µM
O=[N+]([O-])c1ccc(Sc2c3ccccc3nc3ccccc23)cn1 | inactive: 29.5 µM
CCCCCCCCCCCCCCCCCCNC(=S)NC=C1C(=O)c2ccccc2C1=O | inactive: 9.57 µM
COc1ccc2nc3n(c2c1)C(c1c(Cl)cccc1Cl)SC3 (stereo unspecified) | inactive: > 100 µM
COc1ccc2c(C)cc(=O)oc2c1OC | inactive: > 100 µM

SMILES | GI50
C/C(=N\NC(=O)CC(=O)Nc1ccc(Cl)cc1)c1cc2ccccc2oc1=O | inactive: > 100 µM
CCOC(=O)CC(=O)Nc1c(C(=O)OCC)sc2nc(SC)nc(Nc3ccc(OC)c(OC)c3)c12 | active: 0.0791 µM
CC(=O)C1C(=O)C(=O)N(c2ccccc2N2C(=O)C(=O)C(C(C)=O)C2=O)C1=O (stereo unspecified) | inactive: > 100 µM
O=C(CCCl)NN=C1NCCCN1 | inactive: > 100 µM
O=[N+]([O-])c1ccc(-c2ccc(C3=Nn4c(CNc5ccccc5Cl)nnc4SC3)o2)cc1 | inactive: > 100 µM
COC(=O)/C=C/c1cnc2c(c1)oc(=O)n2C | inactive: > 100 µM
Cc1cc(C)c(-n2c(-c3ccccc3)cs/c2=N\N=C2C=C(C(C)(C)C)C(=O)C(C(C)(C)C)=C2)c(C)c1 | inactive: > 100 µM
O=S(=O)(/C=C/CS(=O)(=O)c1ccccc1)c1ccccc1 | inactive: 25.8 µM
O=C(NCc1ccncc1)C1COc2cc(-c3cc(=O)c4ccccc4o3)ccc2O1 (stereo unspecified) | inactive: > 100 µM
S=C1Cc2c(-c3ccccc3)cc(-c3ccc(Cl)cc3)nc2-c2ccccc2N1 | inactive: 2.11 µM
COC(=O)C1=C(O)c2cc(OC)c(OC)cc2C(c2ccc(OC)c(OC)c2)C1 (stereo unspecified) | inactive: > 100 µM
CC(C)c1ccc(/C=C2\CSCC3=C2N=C(S)NC3c2ccc(C(C)C)cc2)cc1 (stereo unspecified) | inactive: > 100 µM
COc1cc(C)c2c(=O)c3ccccc3n(C)c2c1 | inactive: 42.3 µM
O=C1O/C(=C\c2ccc(O)cc2)C(c2ccc(O)c(Cl)c2)=C1Cl | inactive: 38.1 µM
CC(=O)NN1C(=O)C(Cc2ccccc2)c2ccccc21 (stereo unspecified) | inactive: > 100 µM
O=[N+]([O-])c1ccc([I+]c2ccccc2)cc1 | inactive: 8.34 µM
CC(C)/C(Cl)=N\OC(=O)Nc1ccc(S(N)(=O)=O)cc1 | inactive: 15.5 µM
CCOc1cc(C2CC(c3ccc(NS(=O)(=O)c4cc([N+](=O)[O-])ccc4C)cc3)=NN2c2ccc([N+](=O)[O-])cc2[N+](=O)[O-])ccc1O (stereo unspecified) | inactive: 6.22 µM
N=C(N)NS(=O)(=O)c1ccc(NC(=O)c2cccc3c(NNc4ccc(S(=O)(=O)N=C(N)N)cc4)c4ccccc4nc23)cc1 | inactive: 62.4 µM
O=C1C=C(c2ccccc2)OC1C1Sc2ccccc2NC1=O (stereo unspecified) | inactive: 24.3 µM
COc1ccc(Sc2ccccc2[N+](=O)[O-])cc1 | inactive: 42.1 µM
Nc1nc2c3nc(Nc4ccccc4)sc3nc(=O)n2c2sc(Nc3ccccc3)nc12 | inactive: > 100 µM
O=[N+]([O-])c1ccc(CSc2nn(Cc3ccc([N+](=O)[O-])cc3)cc3ncnc2-3)cc1 | inactive: 43.8 µM

Source: ChEMBL document CHEMBL1201862, “PubChem BioAssay data set” (2004)
